Data published in ChEMBL document CHEMBL4888484, “Replenishing the malaria drug discovery pipeline: Screening and hit evaluation of the MMV Hit Generation Library 1 (HGL1) against asexual blood stage Plasmodium falciparum ,using a nano luciferase reporter read-out” (2022).
The campaign covered roughly 150,000 compounds. About 540 (0.36%) showed an effect of 50% or more. The list shows a part of the results.

Test system: Plasmodium falciparum
Test: Primary screen in NF54 nanoGlo assay, in single point, at 2uM, 72h; a lower Z score goes with more inhibition
Assay type: functional, Erythrocyte
Conditions: timepoint 72 hour

| Structure (SMILES) | % Inhibition [%] | Z score |
| --- | --- | --- |
| O=C(NC1CCCc2ccccc21)C1CC(=O)N(c2ccc(F)cc2)C1 (stereo unspecified) | -8 | 1.5 |
| O=C(Nc1cccnc1N1CCN(C(=O)c2cc(F)ccc2Cl)CC1)c1ccc2c(c1)OCO2 | -3 | 0.39 |
| CN(C)[C@@H]1C[C@@H](CO)N(C(=O)NCCc2ccc(F)cc2)C1 | -11 | 1.53 |
| COc1cccc(-c2cc(C(=O)Nc3ccc(N4CCC(OC)CC4)cc3)n(C)n2)c1 | -18 | 2.32 |
| CC(C)c1nnc(NC(=O)[C@H]2CC2(C)C)s1 | -7 | 1.35 |
| COc1cccc(NC(=O)c2c(-c3ccccc3)c(-c3ccccc3)n[nH]c2=O)c1 | 7 | -1.24 |
| COCCN1C[C@@H](Cc2ccc(C(=O)NC3CC3)cc2)CC1=O | 12 | -1.37 |
| COCC(NC(C)C(=O)N(C)C)c1ccco1 (stereo unspecified) | 0 | 0.01 |
| O=C(CNCc1ccco1)NC1CCCC1 | -6 | 0.52 |
| CCOC(=O)CN(CCOC)CC(=O)N(CC)c1ccccc1 | -15 | 1.51 |
| COc1ccc(NC(=O)[C@@H]2CCCN2c2ccc(OC)c(OC)c2)cc1OC | -6 | 0.79 |
| CC(C)c1nc2cc(C(=O)NCCc3noc([C@@H]4CCCO4)n3)ccc2o1 | 1 | -0.08 |
| Fc1cccnc1N1CCC[C@H](c2nncn2C2CC2)C1 | -1 | 0.17 |
| CCc1ccccc1NC(=O)Cc1nnc(-c2cnccn2)o1 | -6 | 0.63 |
| NC(=O)C1CCN(C(=O)N2CCCCC2)CC1 | -10 | 1.8 |
| COc1nccnc1CN[C@H]1C[C@H](c2cccc(C)c2)C1 | 9 | -1.84 |
| Cc1cc(C)n(CC(=O)NCCC(C)C)c(=O)c1-c1nc(-c2ccccc2)no1 | -9 | 1.24 |
| CCOc1cccc(NCc2c(N)ncnc2OC)c1 | 34 | -4.6 |
| CN1C(C(=O)N2CCN(c3ccccc3)CC2)=CC(c2ccco2)=NS1(=O)=O | -11 | 2.02 |
| COc1ccc(-c2nc3n(n2)C2(CCCCC2)[C@@H]2CCCC[C@@H]2N3C(=O)c2ccco2)cc1 | -29 | 2.51 |
| CN(Cc1ccc(Cl)cc1)c1nc2c(c(=O)[nH]1)CCNC2 | -5 | 0.86 |
| COCCCOC1CCN(S(=O)(=O)c2ccc(C#N)nc2)CC1 | -8 | 0.76 |

| Structure (SMILES) | % Inhibition [%] | Z score |
| --- | --- | --- |
| c1cncc(CCn2ccnc2-c2c[nH]cn2)c1 | -5 | 0.6 |
| CO[C@H]1COC[C@H]1NC(=O)N1C[C@@H](C)N(CC(F)(F)F)[C@@H](C)C1 | -9 | 0.92 |
| COc1ccc(CCNC(=O)CCCO)cc1OC | -9 | 1.5 |
| CCOC(=O)c1cc(OC(=O)Cc2ccc(OC)c(S(=O)(=O)N3CCOCC3)c2)cc(C(=O)OCC)c1 | -6 | 0.64 |
| O=C(N[C@H]1CCNC[C@@H]1O)c1cccc(-c2ccc(F)cc2Cl)c1 | -11 | 1.87 |
| COc1ccc(NC(=O)NC(Cc2ccc(F)cc2)Cc2ccc(F)cc2)cc1 | 3 | -0.43 |
| N#CC1(NS(=O)(=O)Cc2ccc(OC(F)(F)F)cc2)CC1 | -17 | 1.78 |
| CN(C)c1cccc(C(=O)Nc2cccc(-c3noc(C4CCCC4)n3)c2)c1 | -18 | 3.1 |
| O=C(Nc1ccccc1)N1CC[C@H]2COC(=O)N2c2ccccc2C1 | 27 | -3.1 |
| Cc1ccccc1[C@H](C(=O)N(C/C=C/c1ccccc1)CCO)N(C)C | -3 | 0.36 |
| COc1ccc(NC(=O)c2c(C)nn(-c3ccccc3)c2C)cn1 | 6 | -1.12 |
| O=C(NCc1cnoc1-c1ccc(F)cc1)c1ccccc1 | -1 | 0.09 |
| COc1cccc(CCNS(=O)(=O)c2ccnn2C)n1 | -4 | 0.68 |
| CCOC(=O)Nc1sc(C)cc1C(N)=O | 1 | -0.12 |
| c1ccc2oc(-c3noc([C@@H]4CCCN4C4CCOCC4)n3)cc2c1 | -16 | 1.68 |
| Cn1cc(-c2cc(F)cc3cccnc23)c(C(=O)O)n1 | -18 | 1.67 |
| CCn1nncc1CN1C(=O)N[C@](C)(c2ccc(Cl)c(Cl)c2)C1=O | 0 | -0.01 |
| Cc1ccc2c(c1)c(C)c(C)n2C[C@@H](O)CNCc1ccccc1 | 35 | -3.93 |
| CC(=O)N(C)Cc1cc(C2=CCCN(Cc3c(C)noc3C)C2)no1 | -11 | 1.34 |
| Cc1ccc(-c2nc(-c3ccncc3)nn2C)s1 | -5 | 1.04 |
| CC1CCCN(C(=O)C2CCCCCC2)C1CN (stereo unspecified) | -2 | 0.24 |
